Data: PubChem BioAssay AID2147 (National Center for Advancing Translational Sciences (NCATS), 2009)
Screen size: about 230,000 compounds; about 3,600 (1.6%) were called active. This list was built around the results that the source calls inconclusive (neither active nor inactive); the mix of calls is not that of the screen. Calls come from the whole dose curve; as a rule, active = well fitted inhibition curve with a large enough effect (not every such curve was filed as active); inconclusive = small, poorly fitted or top-dose-only effect, or another doubt; inactive = no such curve, though single readings can be large or run the other way. Potencies beside an inconclusive call are fits to weak or partial responses and may not hold up.

target: Lysine-specific demethylase 4E (Homo sapiens) (UniProt B2RXH2); experiment: qHTS Assay for Inhibitors of Human Jumonji Domain Containing 2E (JMJD2E); conditions: JMJD2E catalytic domain, FDH-coupled NADH fluorescence (FDH is formaldehyde dehydrogenase); series mostly up to 57.1 µM; activity change, negative = inhibition: at the top concentration
UniProt B2RXH2, sequence (B2RXH2 whole entry, looked up, the tested form may be a part): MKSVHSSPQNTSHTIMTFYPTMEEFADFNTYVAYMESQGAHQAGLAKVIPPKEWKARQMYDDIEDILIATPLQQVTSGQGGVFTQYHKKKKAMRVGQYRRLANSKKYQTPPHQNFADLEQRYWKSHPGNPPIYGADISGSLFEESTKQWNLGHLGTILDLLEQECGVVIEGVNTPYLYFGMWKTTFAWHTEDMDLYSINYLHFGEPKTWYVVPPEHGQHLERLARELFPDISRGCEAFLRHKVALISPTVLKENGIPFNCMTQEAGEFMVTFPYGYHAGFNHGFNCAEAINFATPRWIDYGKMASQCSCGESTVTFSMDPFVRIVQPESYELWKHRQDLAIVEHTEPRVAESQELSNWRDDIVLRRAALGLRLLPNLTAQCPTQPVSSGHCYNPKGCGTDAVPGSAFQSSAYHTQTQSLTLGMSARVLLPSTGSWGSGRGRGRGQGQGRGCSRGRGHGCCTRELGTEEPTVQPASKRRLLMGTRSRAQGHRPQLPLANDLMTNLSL
Note: nearly all actives have a fitted effect of over 50% in size.
Potency is the fitted concentration of half-maximal effect; tags give direction and shape of the fitted curve.
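Throughout, for activity change, negative = inhibition: 0% = wells with enzyme and -100% = buffer wells without enzyme.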

SMILES | activity change, negative = inhibition | Potency
CCCCOC(=O)CSC1=C(C#N)C(c2ccccc2OC)C(C#N)C(=O)N1 (configuration not stated) | inactive: -1.41% | 
Cc1cc(C)c2c(c1)c(C)cc1nnc(SCC(=O)NCc3ccco3)n12 |  | inconclusive: 35.5 µM [inhibitor, partial curve]
CCCCn1c(=S)[nH]c2ccc(N3CCOCC3)cc2c1=O |  | inconclusive: 31.6 µM [inhibitor, partial curve]
CCc1cc(C(=O)Cc2ccc(F)cc2)c(O)cc1O |  | inconclusive: 35.5 µM [inhibitor, single point]
C=CCN1CCc2c(cc(O)c(O)c2Cl)C(c2cccc(C)c2)C1 (configuration not stated) |  | active: 14.1 µM
CCOc1ccc(C(=O)c2cc([N+](=O)[O-])ccc2Cl)cc1 |  | inconclusive: 35.5 µM [inhibitor, single point]
O=C(CC1NCCNC1=O)Nc1ccc([N+](=O)[O-])cc1 (configuration not stated) | inactive: 0.863% | 
Cn1cnc(S(=O)(=O)Nc2ccccc2C(=O)NCC2CC2)c1 |  | inconclusive: 25.1 µM [inhibitor, partial curve]
COC(=O)C1=NN(C(=O)c2cccc(Cl)c2)C(O)(C(C)(C)C)C1 (configuration not stated) |  | inconclusive: 22.4 µM [inhibitor, single point]
C=CCN1C(c2ccccc2)=CS/C1=C(/C#N)c1nnc(N2CCOCC2)n1-c1ccccc1 |  | inconclusive: 14.1 µM [inhibitor, partial curve]
CCN1CCN(C(=O)c2cc3nc(-c4ccccc4)cc(C(F)(F)F)n3n2)CC1 |  | inconclusive: 17.8 µM [inhibitor, partial curve]
CCN(CC)S(=O)(=O)c1ccc2nc(NC(=O)c3ccco3)sc2c1 |  | inconclusive: 35.5 µM [inhibitor, single point]
N=C(N)SCc1ccc(O)c([N+](=O)[O-])c1 | inactive: -12.3% | 
CCn1c(=O)cc(SCC(=O)N2CCN(C)CC2)c2ccccc21 |  | inconclusive: 39.8 µM [inhibitor, single point]
COc1ccc(Cc2nnc(NC(=O)Cn3cnc4c3c(=O)n(C)c(=O)n4C)s2)cc1OC | inactive: 0.31% | 
O=C(COc1ccc(Cl)cc1)Nc1nnc(C2=COCCO2)o1 | inactive: -5.79% | 
COc1ccc(CCNC(=O)CCCn2c(SCC#N)nc3ccccc3c2=O)cc1OC | inactive: 2.49% | 
COc1ccc(S(=O)(=O)N2CCN(c3ccc4nnc(-c5ccc(F)cc5)n4n3)CC2)cc1 |  | inconclusive: 39.8 µM [inhibitor, single point]
Cc1cc(=O)n(CC(C)C)c(O)c1C#N |  | inconclusive: 10 µM [inhibitor, partial curve]
Cc1ccccc1Cn1cc(NC(=O)c2noc3c2CC(C(C)(C)C)CC3)cn1 (configuration not stated) |  | inconclusive: 39.8 µM [inhibitor, single point]
COC(=O)c1ccc(COc2ccc(C3C4=C(CCCC4=O)Nc4onc(C)c43)cc2)cc1 (configuration not stated) |  | inconclusive: 28.2 µM [inhibitor, partial curve]
CNC(=S)N(Cc1cccs1)Cc1cc2cc(OC)ccc2[nH]c1=O |  | inconclusive: 31.6 µM [inhibitor, partial curve]
CCN(C(=O)COC(=O)CNC(=O)c1ccc(F)cc1)C1CCS(=O)(=O)C1 (configuration not stated) | inactive: 9.08% | 
CC1CC(C)CN(CCOc2ccccc2-c2ccccc2)C1 (configuration not stated) |  | inconclusive: 28.2 µM [inhibitor, single point]

SMILES | activity change, negative = inhibition | Potency
COc1ccc(S(=O)(=O)N(C)C)cc1NCC(=O)Nc1cccc(C#N)c1 |  | inconclusive: 0.355 µM [inhibitor, full curve, poor fit]
COc1cc(OC)c(C#N)c(S(=O)(=O)Cc2ccccc2)c1 | inactive: -8.31% | 
CCC(=O)N(C)/C=C1\Sc2ccccc2C1=O |  | inconclusive: 35.5 µM [inhibitor, partial curve]
CC(C)N(Cc1ccccc1)C(=S)NC(=O)C1(C)CC1(Cl)Cl (configuration not stated) |  | inconclusive: 0.355 µM [inhibitor, full curve, poor fit]
CCCn1c(=O)c(C(=O)Nc2ncccc2C)c(O)c2ccccc21 |  | inconclusive: 39.8 µM [inhibitor, single point]
COc1cc2c(cc1OC)C(C(=O)N1CCN(c3ccccn3)CC1)C(c1cccs1)N(C)C2=O (configuration not stated) |  | inconclusive: 39.8 µM [inhibitor, single point]
CCN(CC)c1ccc(NC(=S)NCC2CCCO2)cc1 (configuration not stated) | inactive: -8.45% | 
Cc1cc(O)c(-c2cc(C(=O)Nc3sc4c(c3C(=O)NCc3ccco3)CCC4)[nH]n2)cc1C |  | inconclusive: 22.4 µM [inhibitor, partial curve]
Cn1nnc(NC(=S)NC(=O)c2cc3ccccc3o2)n1 | inactive: -10.6% | 
O=C(NC(Cc1c[nH]c2ccccc12)C(=O)O)/C(=C/c1ccco1)NC(=O)c1ccccc1 (configuration not stated) |  | inconclusive: 35.5 µM [inhibitor, single point]
CN(Cc1nc(-c2ccccn2)no1)S(=O)(=O)c1ccc(Cl)cc1 | inactive: 3.94% | 
Cc1ccc2nc(NC(=O)c3ccc(Cl)s3)sc2c1 |  | inconclusive: 28.2 µM [inhibitor, partial curve]
CN(C)c1ccc(/C=N/NC(=O)C(=O)/C=C2\NC3(CCCC3)Cc3ccccc32)cc1 | inactive: 2.25% | 
Cc1ccccc1N/N=C1\CCCNC1=O |  | inconclusive: 35.5 µM [inhibitor, single point]
CC(=O)/C(=N\Nc1ccccc1)Sc1cccc2cccnc12 | inactive: 9% | 
COc1ccc(-c2nc(-c3ccccc3)oc2Nc2c(C)cccc2C)cc1 | inactive: -4.16% | 
O=C(COC(=O)c1cc2ccccc2oc1=O)c1cccc([N+](=O)[O-])c1 |  | inconclusive: 39.8 µM [inhibitor, single point]
C/C=C(\CS(=O)(=O)c1ccccc1)S(=O)(=O)c1ccccc1 | inactive: -2.36% | 
O=c1[nH]c2cc3c(cc2cc1CN(Cc1cccnc1)C(=S)NCc1ccco1)OCO3 |  | inconclusive: 28.2 µM [inhibitor, partial curve]
CCc1ccc(/C=N/NC(=O)c2ccccn2)cc1 | inactive: 1.09% | 
C(=Nc1cccc2c(N=Cc3ccco3)cccc12)c1ccco1 |  | inconclusive: 14.1 µM [inhibitor, partial curve]
CCN1C(=O)/C(=C\N(C)C)S/C1=N\S(=O)(=O)c1ccc(C)cc1 | inactive: -8.52% | 
CC(NC(=O)CCCCCCN1C(=O)c2ccccc2C1=O)c1ccc2c(c1)CCCC2 (configuration not stated) | inactive: -5.48% | 
CCOc1ccccc1N(C(=O)c1snc(C(N)=O)c1N)C(C(=O)NC1CCCC1)c1ccco1 (configuration not stated) |  | inconclusive: 25.1 µM [inhibitor, partial curve]

SMILES | activity change, negative = inhibition | Potency
C=CCNc1nc(N2CCCC2)nc2ccccc12 |  | inconclusive: 35.5 µM [inhibitor, single point]
NC(=S)N/N=C/c1ncc(C(F)(F)F)cc1Cl |  | inconclusive: 25.1 µM [inhibitor, single point]
Cc1noc(C)c1COC(=O)Cc1ccc(Cl)c(Cl)c1 | inactive: 3.13% | 
O=S(=O)(Nc1ccc2c(c1)oc1ccccc12)N1CCCC1 |  | inconclusive: 39.8 µM [inhibitor, single point]
CCOCCCNCc1ccc(OC)cc1 |  | inconclusive: 25.1 µM [inhibitor, single point]
CCOC(=O)C1=C(C)NC(=O)NC1c1ccco1 (configuration not stated) |  | inconclusive: 39.8 µM [inhibitor, single point]
CCOC(=O)c1sc(C)c2c1NC(c1ccc(Cl)cc1)NC2=O (configuration not stated) |  | inconclusive: 20 µM [inhibitor, partial curve]
CC1Cc2ccccc2N1c1ncnc2c1nnn2Cc1ccccc1Cl (configuration not stated) |  | inconclusive: 5.01 µM [inhibitor, single point]
Cc1cc(C)c2[nH]c(=O)c(C(c3nnnn3C(C)(C)C)N(Cc3ccco3)CC3CCCO3)cc2c1 (configuration not stated) | inactive: -8.03% | 
O=C(Nc1cccc(C(=O)N2CCN(c3cccc(Cl)c3)CC2)c1)c1ccccc1 |  | inconclusive: 35.5 µM [inhibitor, single point]
Cc1cc(F)ccc1S(=O)(=O)Nc1ccccc1C(=O)Nc1ncn[nH]1 |  | inconclusive: 31.6 µM [inhibitor, partial curve]
CC(C)(C)C(=O)NC(=S)Nc1ccccc1C(N)=O |  | inconclusive: 25.1 µM [inhibitor, partial curve]
CCCOCCOC(=O)C1=C(C)NC(=O)NC1c1cc(Cl)c(O)c(OC)c1 (configuration not stated) | inactive: 0.645% | 
COc1cccc2cc(-c3ccnc(N)n3)oc12 |  | inconclusive: 25.1 µM [inhibitor, partial curve]
CC(=O)NCCCc1nc2ccccc2n1Cc1c(F)cccc1Cl | inactive: -2.49% | 
CCCCC(=O)Nc1cc(N(C)C)nc2ccccc12 |  | inconclusive: 28.2 µM [inhibitor, partial curve]
COc1ccc(-c2nnc(N)s2)cc1 |  | inconclusive: 39.8 µM [inhibitor, single point]
CCc1ccc(-c2cn(C3CCCCC3)c(=S)[nH]2)cc1 |  | inconclusive: 28.2 µM [inhibitor, partial curve]
Cc1ccc(N=Cc2ccc[nH]2)c(O)c1 |  | inconclusive: 6.31 µM [inhibitor, partial curve]
CN(C)c1ccc(/C=N/N2CCN(c3ccccn3)CC2)cc1 | inactive: -20.7% | 
Oc1ccc(Cl)cc1CNCC1CCCO1 (configuration not stated) |  | inconclusive: 39.8 µM [inhibitor, single point]
O=C(O)c1ccc(NC2=C(n3nnc4ccccc43)C(=O)c3ccccc3C2=O)cc1 | inactive: -11.4% | 
COc1c2ccc(C(=O)NCCCCc3ccccc3)cc2nn1C |  | inconclusive: 14.1 µM [inhibitor, partial curve]
CC(C)[C@@H](CC(=O)N[C@@H]1CCCC[C@H]1C(=O)N[C@H](CC(=O)N[C@@H](CCC(=O)O)CC(=O)O)Cc1c[nH]c2ccccc12)NC(=O)C[C@H](Cc1c[nH]c2ccccc12)NC(=O)[C@@H]1CNCC[C@H]1N |  | inconclusive: 31.6 µM [inhibitor, single point]
